Read counts are not given, so values of variants with three or more changes are uncertain.
B1: OR4K15 (parent)
chain: GUUAACGGUCAUAGGCCAUGGAAACUAGGAGCACCAUUUCGCUGCCAGUGAAGAAAUGAACAAAGAAAAUCUGGGCCAGGCAGGCAUCAAAAGAAAUAGUCUUGCGCUCAACCAGAAAGUCUGUAAUCAUUUUAAGGGUA

Variants of: B1
Test: self-cleavage, relative activity (ratio to wild type); higher = more cleavage; in vitro, sequencing; the parent is a self-cleaving ribozyme

With GUUAACGGUCGUAGGCCAUGGAAACUGGGAGCACCAUUUCGCUGCCAGUGAAGAAAAGAACAAAGAAAAUCUGGGCCAGGCAGGCAUCGAAAGAAAUAGCCUUGCGCUCAACCAGAAAGUCUGUAAUCAUUUUAAGGGUA [A11G A27G U57A A89G U100C] as the variant, how does the self-cleavage read?
Its self-cleavage is 1.33.

Which self-cleavage does the source give for GUUAACGGUCGUAGGCCAUGGAAGCCAGGAGCACCAUUUCGCUGCCAGUGAAGAAAUGAGCAAAGAAAAUCUGGGCCAGACAGGCACCAAAAGAAAUAGUCUUGCGCUCAACCAGAAAGUCUGUAAUCAUUUUAAGGGUA [A11G A24G U26C A60G G80A U87C] here?
The self-cleavage was 0.17.

Which self-cleavage does the source give for GUUAACGGUCGUAGGCCAUGGUAACUAGGAGCACCAUUUCGCAGCCAGUGAAGAAAUGAACAAAGAGAAUCUGGGCCAGGCAGGCAUCAAAAGAAAUAGUCUUGCGCUCAACCAGAAAGUCUGUAAUCAUUUUAAGGGUA [A11G A22U U43A A67G] here?
Its self-cleavage is 0.84.

With GUUAACGGUCGUAGGCCAUGGAGACUAGGAGCACCAUUUCGCUGCCAGUGAAGAAAUGAACAAAGAAAAUCUGGGCCAGGCAGGCCUCAAAAGAAGUAGUCUUGCGCUCGACCAGAAAGUCUGUAAUCAUUUUAAGGGUA [A11G A23G A86C A96G A110G] as the variant, how does the self-cleavage read?
The self-cleavage was 0.07.

With GUUAACGGUCGUAGGCCAUGGAGACUAGGAGCACCAUUUCGCUGCCAGUGAAGAAACGAACAAAGAAAAUCUGGGCCAGGCAGGCAUCAAAAGAAGUAGUCUUGCGCUCAACCAGAAAGUCUGUAAUCAUUUUAAGGGUA [A11G A23G U57C A96G] as the variant, how does the self-cleavage read?
Its self-cleavage is 0.23.

For GUUAACGGUCGUAGGCCAUGGAGACUAGGAGCACCAUUUCGCUGCCAGUGAGGAAAUGAACAGAGAGAAUCUGGGCCAGGCAGGCAUCAAAAGAAAUAGUCUUGCGCUCGACCAGAAAGUCUGUAAUCAUUUUAAGGGUA [A11G A23G A52G A63G A67G A110G], which self-cleavage is on record?
Its self-cleavage is 0.12.

Which self-cleavage does the source give for GUUAACGGUCGUAGGCCAUGGAGACUAGGAGCACCAUUUCGCUGCCAGUGAAGAAAUGAACAAAGAAAAUCUGGGCCAGGCAGGCAUCAAAAGAGAUAGUCUCGCGCUCAACCAGAAAGUCUGUAAUCAUUUUAAGGGCA [A11G A23G A95G U103C U139C] here?
Its self-cleavage is 0.73.

With GUUAACGGUCGUAGGCCAUGGAAGCUAGGAGCACCAUUUCGCUGCCAGUGAAGAAAUGAACAAAGAAAAUCUGGGCCAGGCAGGCAUCAAAAGAAAUAGUCUUGCGCUCAACCAGAAAGUCUGUAAUCACUUUAAGGGUA [A11G A24G U130C] as the variant, how does the self-cleavage read?
The self-cleavage was 0.29.

For GUUAACGGUCGUAGGCCAUGGAAGCUGGGAGCACCAUUACGCUGCCAGUGAAGAAAUGAACAAAGAAAAUCUGGGCCAGGCAGGCAUCAAAAGAAAUAGUCUUGCGCUCAACCAGAAAGUCUGUAAUCAUUUUGAGGGUA [A11G A24G A27G U39A A134G], which self-cleavage is on record?
Its self-cleavage is 0.94.

Which self-cleavage does the source give for GUUAACGGUCGUAGGCCAUGGAGACCAGGAGCACCAUUUCGCUGCCGGUGAAGAAAUGAACAAAGAGAAUCUGGGCCAGGCAGGCACCAAAAGAAAUAGUCUUGCGCUCAACCAGAAAGUCUGUAAUCAUUUUAAGGGUA [A11G A23G U26C A47G A67G U87C] here?
Its self-cleavage is 0.2.

For GUUAACGGUCGUAGGCCAUGGAAACUCGGAGCACCGUUUCGCUGCCAGUGAAGAAAUGGACAAAGAAAAUCUGGGCCAGGCAGGCAUCAAAAGAAAUAGUCUUGCGCUCAACCAGAAAGUCUGUAAUCAUUUUAAGGGUA [A11G A27C A36G A59G], which self-cleavage is on record?
Its self-cleavage is 0.94.

With GUUAACGGUCGUAGGCCAUGGAUACUAGGAGCACCACUUCGCUGCCAGAGAAGAAAUGAACAAAGAAAAUCUGGGCCAGGCAGGCAUCAAAAGAAAUAGUCUUGCGCUCAACCAGAAGGUCUGUAAUCAUUUUAAGGGUA [A11G A23U U37C U49A A118G] as the variant, how does the self-cleavage read?
Its self-cleavage is 0.99.

Which self-cleavage does the source give for GUUAACGGUCGUAGGCCAUGGAGACUAGGAGCACCAUUUCGCUGCCAGUGAAGAAAUGAACAAAGAAAAUCUGGGCCAGGCAGGCAUCAAAAGAAGUAGUCUUGCGCUCAACCAGAAAGUCUGUAAUCAUUUUAAGGGUA [A11G A23G A96G] here?
Its self-cleavage is 0.44.

Which self-cleavage does the source give for GUUAACGGUCGUAGGCCAUGGAAGCCAGGAGCACCAUUUCGUUGCCAGUGAAGAAAUGAACAAAGGAAAUCUGGGCCAGGCAGGCAUCAAAAGAAUUAGUCUUGCGCCCAACCAGAAAGUCUGUAAUCAUUUUAAGGGUA [A11G A24G U26C C42U A66G A96U U108C] here?
The self-cleavage was 0.01.

Which self-cleavage does the source give for GUUAACGGUCGUAGGCCAUGGAAACUGGGAGCACCAUUUCGCUGCCAGUGAAGAAAUGAACAAAGAAAAUCUGGGCCAGGCAGGCAUCAAAAGAAAUAGUCUUGCGCCCAACCAGAAAGUCUGUAAUCAUUUUAAGGGUA [A11G A27G U108C] here?
The self-cleavage was 0.04.

With GUUAACGGUCGUAGGCCAUGGAUACUAGGAGCACCAUUUCGCUGCCAGUGAAGAAAUGAACAAAGAAAAUCUGGGCCAGGCAGGCAUCAAAAGAAAUAGUCUUGCGCUCAACCAGAAAGCCUGUAAUCAUUUUAAGGGUA [A11G A23U U120C] as the variant, how does the self-cleavage read?
Its self-cleavage is 0.5.

With GUUAACGGUCGUAGGCCAUGGAGACUAGGAGCACCAUUUCGCUGCCAGUGAAGAAAUGAACAAAGAAAAUCUGGGCCAGGCAGGCAUCAAAAGAAAUAGUCUUGCGCUCAACCAGAAAGUCCGUAAUCAUUUUGAGGGUA [A11G A23G U122C A134G] as the variant, how does the self-cleavage read?
Its self-cleavage is 0.96.

For GUUAACGGUCGUAGGCCAUGGGAACUAGGAGCACCAUUUCGCUGCCAGCGAAGAAAUGAACAAAGAAAAUCUGGGCCUGGCAGGCAUCAAAAGAAACAGUCUAGCGCUCAACCAGAGAGUCUGUAAUCAUUUUAAGGGUA [A11G A22G U49C A78U U97C U103A A117G], which self-cleavage is on record?
Its self-cleavage is 0.05.

With GUUAACGGUCGUAGGCCAUGGAAGCUAGGAGCACCAUUUCGCUGCCAGUGAAGAAAUGAACAAAGAGAAUCUGGGCCAGGCAGGCAUCAGAAGAAAUAGUCUUGCGCUCAACCAGGAAGUCUGUAAUCAUUUUAAGGGUA [A11G A24G A67G A90G A116G] as the variant, how does the self-cleavage read?
The self-cleavage was 0.11.

For GUUAACGGUCGUAGGCCAUGGAACCUAGGAGCACCAUUUCGUUGCCAGUGAAGAAAUGAACGAAGAAAAUCUGGGCCAGGCAGGCAUCGAAAGAAAUAGUCUUGCGCUCAACCAGAAGGACUGUGAUCAUUUUAAGGGUA [A11G A24C C42U A62G A89G A118G U120A A125G], which self-cleavage is on record?
Its self-cleavage is 0.65.

Which self-cleavage does the source give for GUUAACGGUCGUAGGCCAUGGAACCUAGGAGCACCAUUUCGCAGCCAGUGAAGAAACGAACAAAGAAAAUCUGGGCCAGGCAGGCAUCAAUGGAAAUAGUCUUGCGCUCAACCAGAAAGCCUGUAAUCAUUUUAAGGGUA [A11G A24C U43A U57C A91U A92G U120C] here?
The self-cleavage was 0.3.

From the RNAGym collection of RNA variant scans (doi:10.7554/elife.90254)
